PubChem BioAssay AID1508642 (National Center for Advancing Translational Sciences (NCATS), 2021)
In all, about 43,000 compounds went through this assay and about 200 (0.47%) were called active. Inconclusive results (about 12%) are left out. The call rests on the fitted dose curve; in most records, active means well fitted cell-killing curve with a large enough effect; inconclusive means small, poorly fitted or top-dose-only effect, or effect the other way; inactive means flat fitted curve, though single readings scatter. The list shows a part of the results.

Assay: Cell viability qHTS assay in S16 Pmp22-F2sN cells; further: nearly all actives have a fitted effect of over 65% in size
Conditions: S16 Pmp22-F2sN Schwann cells (luciferase reporters placed in the Pmp22 gene) viability, CellTiter-Glo, 24 h; series mostly up to 57.5 µM; activity change, negative = cytotoxicity: at the top concentration
In short: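 CellTiter-Glo counter-screen, qHTS, 1536-well. Cells: S16(c9) Pmp22-F2sN, 500-1,000/well in DMEM + 10% FBS. Cpd 23 nL pin transfer, 24 h, 37C/5% CO2. Read: luminescence, CCD imager.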
On the % scale 0 is the no-effect control and ±100 the full control effect.

Row | SMILES | activity change, negative = cytotoxicity
1 | CCOc1ccc(Nc2ncnc3c2cnn3-c2ccc(F)cc2)cc1 | inactive: 2.87%
2 | CCOC(=O)c1ccccc1NC(=O)Cn1c(=O)n(CCCC(=O)NCc2ccc3c(c2)OCO3)c(=O)c2ccccc21 | inactive: 16.8%
3 | Cn1cc(S(=O)(=O)N2CCCCC2)cc1C(=O)N1CCN(c2ccccc2F)CC1 | inactive: 2.38%
4 | COc1cccc(-c2csc(-c3c(N)c(C(=O)c4ccccc4)n4ccccc34)n2)c1 | inactive: 27.4%
5 | O=C(CSc1nc2c([nH]c3ccccc32)c(=O)n1-c1ccc(Cl)cc1)N1CCCCCC1 | inactive: -8.49%
6 | O=C(NCCc1ccccc1)C(=O)NCC(c1ccco1)S(=O)(=O)c1ccccc1 (stereo unspecified) | inactive: -3.69%
7 | COCCCNC(=O)CCC(=O)NNc1nc2ccccc2c2nc(-c3ccccc3)nn12 | inactive: -9.19%
8 | COCCNC(=O)CSc1nc2cc3c(cc2c(=O)n1Cc1ccc(C(=O)NCCc2ccc(OC)c(OC)c2)cc1)OCO3 | inactive: 1.77%
9 | CCOc1ccc(NC(=O)CSc2nnc(-c3ccncc3)n2-c2ccccc2)cc1 | inactive: -6.77%
10 | CCc1cccc(NC(=O)CSc2ncc3c(n2)-c2ccccc2N(CC)S3(=O)=O)c1 | inactive: -3.33%
11 | COc1ccc(NC(=O)C(C)n2nc(-c3cc(C)ccc3C)c3c(c2=O)CCCC3)cc1 (stereo unspecified) | inactive: 11.5%
12 | COc1ccc(CNC(=O)c2ccc(CSc3nc4ccncc4n3Cc3ccccc3F)cc2)cc1 | inactive: -24.8%
13 | CC(=O)N1CCC2(CC1)OC(=O)C(C)=C2C(=O)NCc1cccc(Cl)c1 | inactive: 3.42%
14 | O=C(O)CCc1nnc2cnc3ccccc3n12 | inactive: -0.117%
15 | Cc1ccc2ncc(C(=O)NC(C)c3ccccc3)c(=O)n2c1 (stereo unspecified) | inactive: -2.71%
16 | Cc1ccc(C(=O)Nc2nnc(S(=O)(=O)N3CCN(c4ccc(F)cc4)CC3)s2)cc1 | inactive: -1.81%
17 | Cc1ccc(CNC(=O)c2cnc3c(-c4ccccc4)c(C)nn3c2C)o1 | inactive: -5.22%
18 | O=[N+]([O-])c1cc(-c2nc(-c3ccccn3)no2)ccc1NCc1ccccc1 | inactive: 17.1%
19 | Cc1ccc(N2C(=O)CS(=O)(=O)C23C(=O)N(C)c2ccccc23)cc1F (stereo unspecified) | inactive: 4.05%
20 | Cc1ccc(N2CCN(C(=O)c3c(C)oc4ncnc(N5CCOCC5)c34)CC2)c(C)c1 | inactive: 15.2%
21 | COc1cc(NC(=O)NCC2CCN(Cc3ccc(C)cc3)CC2)cc(OC)c1OC | inactive: 6.24%
22 | Cc1ccc2scc(N3CCCCC3)c(=O)c2c1 | inactive: -0.639%
23 | COCCCNC(=O)c1cnn(-c2ccc(F)cc2F)c1C1CCNCC1 | inactive: -5.37%
24 | CN(Cc1ccccc1)C(=O)C1CCC(CNS(=O)(=O)c2ccc3c(c2)CCCC(=O)N3)CC1 (stereo unspecified) | inactive: 8.91%

Row | SMILES | activity change, negative = cytotoxicity
25 | Cc1ccc(N2CCN(C(=O)C3CCN(c4ncnc5c4nc4n5CCCCC4)CC3)CC2)c(C)c1 | inactive: -0.438%
26 | Cc1ccc2nc(NC(=O)c3nc(SCc4ccccc4C)ncc3Cl)sc2c1 | inactive: -4.01%
27 | CCOC(=O)c1c(S(=O)(=O)NCC(=O)Nc2ccc(F)cc2C)c(C)n(C)c1C | inactive: -3.55%
28 | COc1cc(OC)cc(-c2nc3nc(C)c(CCC(=O)NCCC(C)C)c(C)n3n2)c1 | inactive: 12.7%
29 | O=c1c(S(=O)(=O)c2cccc(Cl)c2)cn(Cc2ccccc2)c2cc(N3CCCCC3)c(F)cc12 | inactive: 5.83%
30 | COc1ccccc1NC(=O)CN1C(=O)CSc2ccc(S(=O)(=O)N3CCCC3)cc21 | inactive: 19.9%
31 | Cc1ccc(CCNC(=O)c2cn(C)c3ccc(S(=O)(=O)N4CCC(C)CC4)cc3c2=O)cc1 | inactive: 10.6%
32 | Cc1cc(C)c(NC(=O)CCCn2c(C)c3cnn(-c4ccccc4)c(=O)c3c2C)c(C)c1 | inactive: -13.3%
33 | CC(C)CC(=O)Nc1nnc(SCc2cc(=O)n3ccccc3n2)s1 | inactive: 7.25%
34 | COc1cccc(-n2cc(C(=O)OCc3ccc(Cl)cc3)c3ccccc3c2=O)c1 | inactive: -2.81%
35 | Cc1cccc(CNC(=O)c2ccc(C)c(-n3c(C)nc4cccnc43)c2)c1 | inactive: -5.4%
36 | CCOc1ccc(-n2c(=O)c3c(C)c(C)sc3n(CC(=O)N3CCC(C)CC3)c2=O)cc1 | inactive: 10.5%
37 | O=C(NCc1ccccc1Cl)c1ccc(Cn2c(=O)c3cccn3c3cccnc32)cc1 | inactive: 1.55%
38 | CCn1ccc2cc(S(=O)(=O)N3CCC(C(=O)NCCc4ccccc4)CC3)ccc21 | inactive: -0.727%
39 | CC(=O)C1=C(c2ccc(Br)cc2)N(C(C)=O)n2c(nnc2C2CCCCC2)S1 | inactive: 2.71%
40 | COc1cc(OC)c(NC(=O)c2c(C)oc3nc(C)nc(N4CCOCC4)c23)cc1Cl | inactive: 0.257%
41 | O=C(c1cccc(Cl)c1)n1nc(-c2cccnc2)nc1NCc1ccccc1 | inactive: -1.97%
42 | COc1cc(OC)cc(C(=O)Nc2nnc3n2CCS3)c1 | inactive: -16%
43 | Cc1ccc(C(=O)Nc2nc(-c3nnn(-c4cccc(C(F)(F)F)c4)c3C)ns2)cc1 | inactive: -0.132%
44 | CSCCC(NS(=O)(=O)c1ccc2c(c1)oc(=O)n2C)C(=O)N1CCN(c2ccc(C(C)=O)cc2)CC1 (stereo unspecified) | inactive: 6.49%
45 | CCc1ccc(-n2c(=O)c3cccnc3n2CC(=O)Nc2cc(OC)ccc2OC)cc1 | inactive: -2.56%
46 | O=C(c1ccc(F)cc1)n1nc(-c2cccnc2)nc1NCc1ccc(F)cc1 | inactive: 1.67%
47 | Cc1nc(-c2ccc(S(=O)(=O)N3CCN(c4cc(Cl)ccc4C)CC3)cc2)co1 | inactive: -5.36%
48 | O=C(NCCc1ccc(Cl)cc1)C1COc2ccccc2C1 (stereo unspecified) | inactive: -5.94%

Row | SMILES | activity change, negative = cytotoxicity
49 | Cc1cn2c(=O)c(S(=O)(=O)N3CCN(c4cc(Cl)ccc4C)CC3)c(C)nc2s1 | inactive: -1.42%
50 | CCOC(=O)c1noc2ncn(CC(=O)Nc3cccc(Cl)c3)c(=O)c12 | inactive: 6.01%
51 | O=C(CSc1c2c(nc3cc(Cl)ccc13)CCCC2)N1CCN(c2ccccc2F)CC1 | inactive: 1.15%
52 | COc1ccccc1NC(=O)CSc1oc(-c2ccccc2)nc1S(=O)(=O)c1ccc(C)cc1 | inactive: -2.17%
53 | Cc1ccc2nc(-c3cccnc3)c(Nc3ccc(C(C)C)cc3)n2c1 | inactive: 3.59%
54 | O=C(COc1ccc2ccccc2c1)NC1CC(=O)N(c2ccccc2)C1 (stereo unspecified) | inactive: 2.45%
55 | Cc1ccc(S(=O)(=O)c2nc(-c3cccs3)oc2SC(C)C)cc1 | inactive: -17.9%
56 | N#Cc1ccccc1NC(=O)C(=O)NCCc1csc(-c2ccc(F)cc2)n1 | inactive: -2.88%
57 | O=C(Cn1c(=O)oc2cc(S(=O)(=O)N3CCCC3)ccc21)Nc1ccc(F)cc1F | inactive: -0.459%
58 | CCNC(=O)CC1C(=O)N(c2ccc(C)cc2)C(=O)N1CCC(C)C (stereo unspecified) | inactive: 0.263%
59 | COc1ccc2c(Sc3ccc(Cl)cc3)c(C(=O)N3CCC(C)CC3)[nH]c2c1 | inactive: 2.39%
60 | O=C(Nc1cccc(-c2nc3cccnc3s2)c1)c1cccc(Br)c1 | inactive: 1.09%
61 | CCOC(=O)c1ccc(NC(=O)c2cn(-c3ccccc3)nc2-c2ccc(OC)c(OC)c2)cc1 | inactive: 20.7%
62 | CCOc1ccccc1NC(=O)CSc1ncc(S(=O)(=O)c2ccc(C)c(C)c2)c(N)n1 | inactive: 17.2%
63 | COc1ccc(CCNC(=O)Cn2cc(S(=O)(=O)Cc3ccccc3Cl)c3ccccc32)cc1OC | inactive: -19.2%
64 | O=C(CSc1nnc(-c2ccccc2F)o1)Nc1ccccc1Cl | inactive: -16.9%
65 | COc1ccc(-c2cc(OC(=O)c3cccc(Cl)c3)c3c(C)oc(C)c3c(=O)c2)cc1 | inactive: 0.353%
66 | CCOc1ccc(NC(=O)Cn2nnc(C(=O)NCCc3ccccc3)c2N)cc1 | inactive: 23.5%
67 | COc1ccc(-c2noc(-c3ccc(NCC4CCCO4)c([N+](=O)[O-])c3)n2)cc1 (stereo unspecified) | inactive: 9.49%
68 | CCc1nn(CC(=O)Nc2c(C)cccc2C)c(=O)c2cc3sccc3n12 | inactive: 1.61%
69 | O=C(CSc1nc2c([nH]c3ccccc32)c(=O)n1-c1ccccc1)Nc1ccc(Cl)c(Cl)c1 | inactive: -1.73%
70 | CSc1ccc(C2c3c(oc4cc(C)cc(C)c4c3=O)C(=O)N2CCO)cc1 (stereo unspecified) | inactive: 13%
71 | Cc1nc2sc(C(=O)N(C)c3ccccc3)c(NC(=O)c3ccccc3Cl)c2c(C)c1C | inactive: 18%
72 | CC[C@@H](C)[C@@H](C(=O)Nc1ccc(C)cc1)N1Cc2ccccc2C1=O | inactive: -11.1%

Row | SMILES | activity change, negative = cytotoxicity
73 | CCCn1c(=O)c2c(nc3n2CCN3c2ccc(C)cc2)n(C)c1=O | inactive: -3%
74 | Cc1ccc(CN(C(=O)COc2ccc(Cl)cc2C)C2CCS(=O)(=O)C2)o1 (stereo unspecified) | inactive: -6.33%
75 | Cc1ccc(OCC(=O)N(Cc2ccco2)Cc2ccco2)cc1C | inactive: -6.9%
76 | CC(C)CCNC(=O)CCn1c(=O)c2cccn2c2cccnc21 | inactive: 18%
77 | COc1cn(CC(=O)Nc2ccccc2)c(CN2CCCCC2)cc1=O | inactive: -0.0849%
78 | Cc1oc2ncn(CC(C)C)c(=O)c2c1C(=O)NCCCN1CCC(C)CC1 | inactive: 5.58%
79 | O=C(COc1ccccc1F)OCc1cc(=O)n2nc(C3CC3)sc2n1 | inactive: 9.62%
80 | COc1ccc(-c2cc(C(=O)Oc3cccc(C)c3)c3cc(C)ccc3n2)cc1 | inactive: 2.91%
81 | Cc1ccc(NC(=O)CN2C(=O)CCc3cc(S(=O)(=O)N4CCCCC4)ccc32)cc1C | inactive: -15.6%
82 | Cc1cc(C)cc(-n2c(C)nc3cc(C(=O)NCc4ccccc4Cl)ccc32)c1 | inactive: -17%
83 | CCN(CC)Cc1c(NC(=O)c2ccc(OC)cc2)sc2c1CCCC2 | inactive: 4.32%
84 | COc1ccc(CCNC(=O)Cn2c(=O)c3cccn3c3ccc(F)cc32)c(OC)c1 | inactive: 8.26%
85 | CC(=O)Nc1ccc(Nc2nc3c(S(=O)(=O)c4cccc(Cl)c4)nnn3c3ccsc23)cc1 | inactive: 4.26%
86 | Cc1ccc2oc(=O)c3cc(C(=O)Nc4ccccc4C(N)=O)sc3c2c1 | inactive: 4.27%
87 | Cc1onc(-c2c(F)cccc2Cl)c1C(=O)Nc1ccc(OC(C)C)cc1 | inactive: -14.3%
88 | CCc1cccc(C)c1NC(=O)C1CCN(c2nn3c(=O)cc(C)nc3s2)CC1 | inactive: 12.3%
89 | CCOc1ccc(Nc2cc(C)nc3nc(Cc4ccc(Cl)cc4)nn23)cc1 | inactive: 11.8%
90 | Cc1ccc(-n2nc3c(N4CCC(C(=O)NC(C)c5ccccc5)CC4)nnc(C)c3c2C)cc1 (stereo unspecified) | inactive: -10.3%
91 | COc1ccccc1N1CCN(C(=O)c2c(C)oc3ncn(CC(C)C)c(=O)c23)CC1 | inactive: -0.405%
92 | O=C(Cn1ccc2ccccc2c1=O)NCCC(=O)Nc1ccc(F)cc1F | inactive: -3.18%
93 | COc1ccc(CCNC(=O)c2cc3c(s2)-c2ccccc2OC3)cc1OC | inactive: 8.78%
94 | Cc1cccc(NC(=O)Nc2ccc(Br)cc2)n1 | inactive: 1.85%
95 | Fc1ccc(N2CCN(c3ncnc4c3nc3n4CCCCC3)CC2)cc1 | inactive: 0.814%
96 | COc1ccc(S(=O)(=O)c2c(O)c3ccc(C(=O)NCc4ccccc4)cc3[nH]c2=O)cc1 | inactive: 1.96%
